Data taken from publication PMC10928841, “Ames test study designs for nitrosamine mutagenicity testing: qualitative and quantitative analysis of key assay parameters” (Mutagenesis, 2023).
Like-named read-outs stand apart in the source and are kept apart here.

Columns and labels:
[1] = system: E. coli WP2uvrA (pKM101); conditions: plate incorporation, up to 5000 µg/plate
[2] = system: S. typhimurium TA100; assay: Ames test, pre-incubation method, TA100; conditions: S9 hamster, up to 5000 µg/plate
[3] = system: S. typhimurium TA1535; assay: Ames test, pre-incubation method, TA1535; conditions: S9 hamster, up to 5000 µg/plate
[4] = system: S. typhimurium TA100; assay: Ames test, plate incorporation method, TA100; conditions: S9 hamster, up to 5000 µg/plate
[5] = system: S. typhimurium TA1535; assay: Ames test, plate incorporation method, TA1535; conditions: S9 hamster, up to 5000 µg/plate
[6] = system: E. coli WP2uvrA (pKM101); assay: Ames test, pre-incubation method, WP2uvrA (pKM101); conditions: up to 5000 µg/plate
[7] = system: S. typhimurium TA98, TA100, TA1535, TA1537 and E. coli WP2uvrA pKM101; assay: Ames test, pre-incubation method, overall result of five strains; conditions: pre-incubation, up to 5000 µg/plate
[8] = system: S. typhimurium TA98, TA100, TA1535, TA1537 and E. coli WP2uvrA pKM101; assay: Ames test, plate incorporation method, overall result of five strains; conditions: for Ames test Result: up to 5000 µg/plate
[9] = S9 hamster, vehicle acetonitrile

With `CN(C)N=O` [NDMA, N-Nitrosodimethylamine] the “Ames test strain WP2*” value ([1]; S9 hamster, vehicle DMSO) was “+ (positive for mutagenicity, if a biologically relevant increase in the mean number of revertant colonies above a threshold of 2-fold (TA98, TA100, WP2 uvrA))”, the “Ames test strain WP2*” value ([1]; S9 hamster, vehicle methanol) was “+ (positive for mutagenicity, if a biologically relevant increase in the mean number of revertant colonies above a threshold of 2-fold (TA98, TA100, WP2 uvrA))” and the “Ames test strain WP2*” value ([1]; S9 hamster, vehicle water) was “+ (positive for mutagenicity, if a biologically relevant increase in the mean number of revertant colonies above a threshold of 2-fold (TA98, TA100, WP2 uvrA))”. The “Ames test strain WP2*” value ([1]; S9 rat, vehicle methanol) was “+ (positive for mutagenicity, if a biologically relevant increase in the mean number of revertant colonies above a threshold of 2-fold (TA98, TA100, WP2 uvrA))”, the “Ames test strain WP2*” value ([1]; S9 rat, vehicle water) was “+ (positive for mutagenicity, if a biologically relevant increase in the mean number of revertant colonies above a threshold of 2-fold (TA98, TA100, WP2 uvrA))” and the “Ames test strain TA100” value ([2]; vehicle DHF) was “+ (positive for mutagenicity, if a biologically relevant increase in the mean number of revertant colonies above a threshold of 2-fold (TA98, TA100, WP2 uvrA))”. The “Ames test strain TA100” value ([2]; vehicle DMSO) was “+ (positive for mutagenicity, if a biologically relevant increase in the mean number of revertant colonies above a threshold of 2-fold (TA98, TA100, WP2 uvrA))”, the “Ames test strain TA100” value ([2]; vehicle acetone) was “+ (positive for mutagenicity, if a biologically relevant increase in the mean number of revertant colonies above a threshold of 2-fold (TA98, TA100, WP2 uvrA))” and the “Ames test strain TA100” value ([2]; vehicle acetonitrile) was “+ (positive for mutagenicity, if a biologically relevant increase in the mean number of revertant colonies above a threshold of 2-fold (TA98, TA100, WP2 uvrA))”. The “Ames test strain TA100” value ([2]; vehicle methanol) was “+ (positive for mutagenicity, if a biologically relevant increase in the mean number of revertant colonies above a threshold of 2-fold (TA98, TA100, WP2 uvrA))”, the “Ames test strain TA100” value ([2]; vehicle water) was “+ (positive for mutagenicity, if a biologically relevant increase in the mean number of revertant colonies above a threshold of 2-fold (TA98, TA100, WP2 uvrA))” and the “Ames test strain TA1535” value ([3]; vehicle acetone) was “+ (positive for mutagenicity, if a biologically relevant increase in the mean number of revertant colonies above a threshold of 2-fold (TA98, TA100, WP2 uvrA) or 3-fold (TA1535, TA1537))”. The “Ames test strain TA1535” value ([3]; vehicle acetonitrile) was “+ (positive for mutagenicity, if a biologically relevant increase in the mean number of revertant colonies above a threshold of 2-fold (TA98, TA100, WP2 uvrA) or 3-fold (TA1535, TA1537))”, the “Ames test strain TA1535” value ([3]; vehicle methanol) was “+ (positive for mutagenicity, if a biologically relevant increase in the mean number of revertant colonies above a threshold of 2-fold (TA98, TA100, WP2 uvrA) or 3-fold (TA1535, TA1537))” and the “Ames test strain TA1535” value ([3]; vehicle water) was “+ (positive for mutagenicity, if a biologically relevant increase in the mean number of revertant colonies above a threshold of 2-fold (TA98, TA100, WP2 uvrA) or 3-fold (TA1535, TA1537))”. For the same compound, the “Ames test strain TA100” value ([4]; vehicle DMSO) was “+ (positive for mutagenicity, if a biologically relevant increase in the mean number of revertant colonies above a threshold of 2-fold (TA98, TA100, WP2 uvrA))”, the “Ames test strain TA100” value ([4]; vehicle methanol) was “+ (positive for mutagenicity, if a biologically relevant increase in the mean number of revertant colonies above a threshold of 2-fold (TA98, TA100, WP2 uvrA))” and the “Ames test strain TA100” value ([4]; vehicle water) was “+ (positive for mutagenicity, if a biologically relevant increase in the mean number of revertant colonies above a threshold of 2-fold (TA98, TA100, WP2 uvrA))”. For the same compound, the “Ames test strain TA1535” value ([5]; vehicle DMSO) was “+ (positive for mutagenicity, if a biologically relevant increase in the mean number of revertant colonies above a threshold of 2-fold (TA98, TA100, WP2 uvrA) or 3-fold (TA1535, TA1537))”, the “Ames test strain TA1535” value ([5]; vehicle methanol) was “+ (positive for mutagenicity, if a biologically relevant increase in the mean number of revertant colonies above a threshold of 2-fold (TA98, TA100, WP2 uvrA) or 3-fold (TA1535, TA1537))” and the “Ames test strain TA1535” value ([5]; vehicle water) was “+ (positive for mutagenicity, if a biologically relevant increase in the mean number of revertant colonies above a threshold of 2-fold (TA98, TA100, WP2 uvrA) or 3-fold (TA1535, TA1537))”. The “Ames test strain WP2*” value ([6]; S9 hamster, vehicle DMSO) was “+ (positive for mutagenicity, if a biologically relevant increase in the mean number of revertant colonies above a threshold of 2-fold (TA98, TA100, WP2 uvrA))”, the “Ames test strain WP2*” value ([6]; S9 hamster, vehicle acetone) was “+ (positive for mutagenicity, if a biologically relevant increase in the mean number of revertant colonies above a threshold of 2-fold (TA98, TA100, WP2 uvrA))” and the “Ames test strain WP2*” value [6, 9] was “+ (positive for mutagenicity, if a biologically relevant increase in the mean number of revertant colonies above a threshold of 2-fold (TA98, TA100, WP2 uvrA))”. For the same compound, the “Ames test strain WP2*” value ([6]; S9 hamster, vehicle methanol) was “+ (positive for mutagenicity, if a biologically relevant increase in the mean number of revertant colonies above a threshold of 2-fold (TA98, TA100, WP2 uvrA))”, the “Ames test strain WP2*” value ([6]; S9 hamster, vehicle water) was “+ (positive for mutagenicity, if a biologically relevant increase in the mean number of revertant colonies above a threshold of 2-fold (TA98, TA100, WP2 uvrA))” and the “Ames test strain WP2*” value ([6]; S9 rat, vehicle methanol) was “+ (positive for mutagenicity, if a biologically relevant increase in the mean number of revertant colonies above a threshold of 2-fold (TA98, TA100, WP2 uvrA))”. For the same compound, the “Ames test strain WP2*” value ([6]; S9 rat, vehicle water) was “+ (positive for mutagenicity, if a biologically relevant increase in the mean number of revertant colonies above a threshold of 2-fold (TA98, TA100, WP2 uvrA))”, the “Ames test Result” value ([7]; S9 hamster, vehicle DHF) was “Positive” and the “Ames test Result” value ([7]; S9 hamster, vehicle DMF) was “Negative”. For the same compound, the “Ames test Result” value ([7]; S9 hamster, vehicle DMSO) was “Positive”, the “Ames test Result” value ([7]; S9 hamster, vehicle NMP) was “Negative” and the “Ames test Result” value ([7]; S9 hamster, vehicle acetone) was “Positive”. For the same compound, the “Ames test Result” value [7, 9] was “Positive”, the “Ames test Result” value ([7]; S9 hamster, vehicle methanol) was “Positive” and the “Ames test Result” value ([7]; S9 hamster, vehicle water) was “Positive”. The “Ames test Result” value ([7]; S9 rat, vehicle DHF) was “Negative”, the “Ames test Result” value ([7]; S9 rat, vehicle DMF) was “Negative” and the “Ames test Result” value ([7]; S9 rat, vehicle DMSO) was “Negative”. The “Ames test Result” value ([7]; S9 rat, vehicle NMP) was “Negative”, the “Ames test Result” value ([7]; S9 rat, vehicle acetone) was “Negative” and the “Ames test Result” value ([7]; S9 rat, vehicle acetonitrile) was “Negative”. For the same compound, the “Ames test Result” value ([7]; S9 rat, vehicle methanol) was “Positive”, the “Ames test Result” value ([7]; S9 rat, vehicle water) was “Positive” and the “Ames test Result” value ([8]; S9 hamster, vehicle DMSO) was “Positive”. The “Ames test Result” value ([8]; S9 hamster, vehicle methanol) was “Positive”, the “Ames test Result” value ([8]; S9 hamster, vehicle water) was “Positive” and the “Ames test Result” value ([8]; S9 none, vehicle DMSO) was “Negative”. For the same compound, the “Ames test Result” value ([8]; S9 none, vehicle methanol) was “Negative”, the “Ames test Result” value ([8]; S9 none, vehicle water) was “Negative” and the “Ames test Result” value ([8]; S9 rat, vehicle DMSO) was “Negative”. The “Ames test Result” value ([8]; S9 rat, vehicle methanol) was “Positive”, the “Ames test Result” value ([8]; S9 rat, vehicle water) was “Positive” and the “mutagenicity in any bacterial strain” value ([8]; absence of S9-mix, water, methanol or DMSO as vehicle) was “not mutagenic”.
